Among all 310,000 compounds or so, about 14,000 (4.5%) showed an effect of 50% or more. The effect is printed as a negative number. The list shows a part of the results.
The compounds below were run against human ether-à-go-go-related gene (hERG) potassium channel (human, UniProt Q12809) (assay: primary screen, population patch clamp on CHO cells stably expressing hERG).
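Also: peak tail current of the secondary pulse compared with the same well before compound.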

human ether-à-go-go-related gene (hERG) potassium channel, sequence (Q12809 whole entry, looked up): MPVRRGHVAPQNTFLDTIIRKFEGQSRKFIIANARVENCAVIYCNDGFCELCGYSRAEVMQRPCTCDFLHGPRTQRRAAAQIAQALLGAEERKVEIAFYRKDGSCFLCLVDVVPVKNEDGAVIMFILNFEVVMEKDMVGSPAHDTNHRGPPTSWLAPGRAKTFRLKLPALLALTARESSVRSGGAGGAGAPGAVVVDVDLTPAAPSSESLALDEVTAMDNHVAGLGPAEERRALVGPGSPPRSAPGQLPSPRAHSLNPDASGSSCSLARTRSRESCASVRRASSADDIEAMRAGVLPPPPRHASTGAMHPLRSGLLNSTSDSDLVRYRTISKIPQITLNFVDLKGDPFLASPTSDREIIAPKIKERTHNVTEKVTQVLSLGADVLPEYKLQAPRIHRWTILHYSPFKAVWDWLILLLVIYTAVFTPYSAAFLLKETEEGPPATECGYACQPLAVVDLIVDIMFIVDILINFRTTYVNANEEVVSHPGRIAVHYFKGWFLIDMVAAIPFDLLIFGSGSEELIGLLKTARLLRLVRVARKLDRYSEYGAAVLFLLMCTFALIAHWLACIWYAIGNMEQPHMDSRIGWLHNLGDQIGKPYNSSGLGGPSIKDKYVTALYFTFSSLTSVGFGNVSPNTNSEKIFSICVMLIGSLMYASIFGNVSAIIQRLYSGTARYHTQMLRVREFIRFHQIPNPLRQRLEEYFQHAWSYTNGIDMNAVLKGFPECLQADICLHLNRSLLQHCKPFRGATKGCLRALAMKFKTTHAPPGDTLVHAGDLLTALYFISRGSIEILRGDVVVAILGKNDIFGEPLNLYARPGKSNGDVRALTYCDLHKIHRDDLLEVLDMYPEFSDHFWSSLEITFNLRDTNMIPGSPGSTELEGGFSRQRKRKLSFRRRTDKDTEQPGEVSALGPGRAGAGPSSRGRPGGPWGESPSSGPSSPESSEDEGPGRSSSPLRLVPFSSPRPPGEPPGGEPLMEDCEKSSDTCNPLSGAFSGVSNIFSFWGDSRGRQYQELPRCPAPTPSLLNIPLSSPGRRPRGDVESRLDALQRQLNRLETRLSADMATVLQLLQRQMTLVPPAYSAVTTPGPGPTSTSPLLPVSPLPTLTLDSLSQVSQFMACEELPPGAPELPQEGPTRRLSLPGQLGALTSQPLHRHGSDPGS

| Compound | hERG current change (%, negative = inhibition) at 10uM |
| --- | --- |
| COc1ccc(C(=O)OCC(=O)NCCCc2ccccc2)cc1OC | 12.8% |
| Cn1cc(S(=O)(=O)N2CCCC2)cc1C(=O)NCc1ccc(Cl)cc1 | 2.02% |
| NS(=O)(=O)c1ccc(CNC(=O)CNC(=O)c2ccc(Br)o2)cc1 | 23.2% |
| CC(NC(=O)c1ccc(C(F)(F)F)cc1)C(c1ccccc1)N1CCOCC1 (centres unmarked) | -12.5% |
| O=C(N/C(=C/c1ccco1)C(=O)N1CCCC1)c1cccs1 | -0.326% |
| CCc1cccc(NC(=O)CNC(=O)N2CC(=O)Nc3ccccc32)c1 | -8.55% |
| Cc1cc(C(=O)O[C@H]2[C@H](C)NS(=O)(=O)[C@H]3C[C@@H]4C=C[C@]23O4)cc([N+](=O)[O-])c1 | 4.52% |
| COc1ccc2c(c1)N(C(=O)CN1C(=O)C3CCCCC3C1=O)C(C)(C)C=C2C (centres unmarked) | -4.67% |
| O=C(Cn1ncc2c(=O)oc3ccccc3c21)NCCC1=CCCCC1 | -3.92% |
| O=C(CCc1ccc(S(=O)(=O)N2CCOCC2)cc1)NCCCN1CCCC1=O | 5.62% |
| Cc1[nH][nH]c(=O)c1C(c1ccccc1[N+](=O)[O-])C(C#N)C#N (centres unmarked) | 14.5% |
| CC(C)Cn1c(SCC(=O)NCCCN2CCCC2=O)nc2ccccc21 | 17.5% |
| CN(C)c1ccc(/C=N/NC(=O)c2nnn(-c3nonc3N)c2COc2ccc(F)cc2)cc1 | 11% |
| COc1ccccc1C(C)NC(=O)c1cc(S(=O)(=O)N2CCCCC2)ccc1C (centres unmarked) | -2.32% |
| CCSc1nnc(SCC(=O)NNC(=O)c2ccccc2F)s1 | -4.1% |
| CSc1ccccc1NC(=O)CSCc1ccccc1Br | 4.94% |
| O=C(NC(=O)c1ccccc1)C1=C(N2CCCC2)COC1=O | 2.32% |
| COC(=O)c1ccc(S(=O)(=O)NNC(=O)COc2ccc(C)cc2)cc1 | 10.4% |
| O=C(COC(=O)c1c(F)cccc1Cl)NC(=O)Nc1ccc2c(c1)OCCO2 | 12.4% |
| Cc1onc(-c2ccccc2Cl)c1C(=O)NCC1CCCO1 (centres unmarked) | -0.317% |
| COc1ccc(N2C(=O)CSC2c2cccs2)cc1 (centres unmarked) | -3.37% |
| Cc1cc(C)n(CC2CC(=O)N(c3ccc(C)c(Cl)c3)C2=O)n1 (centres unmarked) | -3.7% |

| Compound | hERG current change (%, negative = inhibition) at 10uM |
| --- | --- |
| NS(=O)(=O)c1ccc(CCNC(=O)C2CCN(S(=O)(=O)c3ccccc3)CC2)cc1 | 14.4% |
| CC1CCCC(C)N1C(=O)CSc1nccc(=O)[nH]1 (centres unmarked) | -0.231% |
| Cc1cc2c(cc1S(=O)(=O)N1CCN(c3ccccc3)CC1)OCCN2C | -32.7% |
| CCN(CC)S(=O)(=O)c1ccc(NN=C2CCN(C(C)C)CC2)c([N+](=O)[O-])c1 | -38.3% |
| Cc1ccc(S(=O)(=O)Nc2cnn(-c3ccccc3)c(=O)c2Cl)cc1 | 18.6% |
| CCN1C(=O)NC(=O)/C(=C\c2cn(CC(=O)N3CCCC3)c3ccccc23)C1=O | -0.147% |
| CCOc1ccccc1NS(=O)(=O)c1ccc2c(c1)n(C)c(=O)c(=O)n2C | -44.8% |
| C1CCCN(c2nc3nonc3nc2N2CCCCCC2)CC1 | 8.53% |
| O=c1[nH]cc(F)c(=O)[nH]1 | 6.92% |
| COC(=O)c1cccc(NS(=O)(=O)c2ccc(OC)c(C(=O)N3CCOCC3)c2)c1C | 16.9% |
| CC(=O)c1cccc(NC(=O)Cc2ccc3c(c2)CCCC3)c1 | 18.8% |
| CC(OC(=O)Cn1cnc2ccccc2c1=O)C(=O)NCc1ccccc1 (centres unmarked) | 10.8% |
| Cc1cc(OCCN2CCC(Cc3ccccc3)CC2)ccc1[N+](=O)[O-].O=C(O)C(=O)O | -79.1% |
| O=C(Nc1ccc(F)cc1F)c1cc(Cl)sc1Cl | 3.22% |
| CC1CCCCC1NS(=O)(=O)CCNC(=O)c1ccc2c(c1)OCO2 (centres unmarked) | 8.62% |
| CCc1ccc(C(=O)N/N=C(\C)c2cccnc2)s1 | 1.05% |
| CC(=O)NCCOc1cccc2ccccc12 | 2% |
| O=C(CNS(=O)(=O)c1ccc(F)c(Cl)c1)N1CCCCCC1 | -0.168% |
| C#CCOCCOCCOCCNc1nc(N2CCOCC2)nc(N2CCN(C(=O)[C@H](C)n3cc(CCC[NH+]=C(N)N)nn3)CC2)n1.[Cl-] | 4.73% |
| CCCN1CCc2c(sc(NC(=O)C3CCN(S(=O)(=O)c4cccs4)CC3)c2C(N)=O)C1.Cl | -61.3% |
| COc1ccc(CCNc2c(C=O)c(=O)[nH]c3ccccc23)cc1OC | 9.61% |
| O=C(Nc1ccc2oc(=O)ccc2c1)c1cc([N+](=O)[O-])ccc1N1CCOCC1 | -41.8% |

| Compound | hERG current change (%, negative = inhibition) at 10uM |
| --- | --- |
| CC(C)CCn1cnc2c1c(=O)n(CC(=O)NC(N)=O)c(=O)n2Cc1ccccc1 | 6.8% |
| CC(C)=CC(=O)Nc1ccc(OCc2ccccc2)cc1 | 4.31% |
| CCC(=O)N1CCC(c2ccc(OC)cc2)=N1 | 15.6% |
| COc1cc(NC(=O)c2sc3ncn(CC(=O)N4CCCCC4)c(=O)c3c2C)cc(OC)c1OC | -4.83% |
| COc1cc2c(=O)n(CCCC(=O)NCC3CCCO3)c(=O)n(CC(=O)c3ccc(F)cc3)c2cc1OC (centres unmarked) | -2.1% |
| COc1ccc(CN(C(=O)c2snc(C(N)=O)c2N)C(C(=O)NC2CCCC2)c2ccc(OC)cc2)cc1 (centres unmarked) | -20.4% |
| C/C=C/c1ccc(OCC(=O)OCc2csc(Nc3ccc(C)cc3)n2)c(OC)c1 | 7.71% |
| COc1ccc(CN2C(=O)NC(=O)/C(=C\c3cc(OC)c(OC)c(OC)c3)C2=O)cc1 | 16.6% |
| Cc1ccc(N2CC(O)=C(c3ccccc3)C2=N)cc1 | -3.56% |
| CCCN(CCC)C(=O)Cc1ccc(F)cc1 | 15.9% |
| CC(=O)c1ccc(N2CCN(C(=O)/C=C/c3ccc4ccccc4n3)CC2)cc1 | -54.4% |
| CC(=O)c1cccc(NC(=O)C2CCN(S(=O)(=O)c3ccccc3)CC2)c1 | -6.37% |
| COc1ccc(CN(C)S(=O)(=O)c2nnc(NC(=O)c3cccc(OC)c3)s2)cc1 | 20% |
| Cc1cc(C(=O)Nc2ccc3c(c2)OCO3)no1 | 26.7% |
| C=CCc1ccc(OCC(O)CN2CCCCC2)c(OC)c1 (centres unmarked) | -54.8% |
| O=C(CN1C(=O)CCS(=O)(=O)c2ccccc21)NCCc1ccccc1 | 10.3% |
| O=C(/C=C/c1ccc(Cl)cc1Cl)N(Cc1ccccc1)C1CCS(=O)(=O)C1 (centres unmarked) | -20.8% |
| O=C(/C=C/Nc1ccccc1Br)c1ccccn1 | -2.51% |
| CC(=O)Nc1ccc(N=Cc2nc(-c3ccc(C)cc3)oc2O)cc1 | 2.43% |
| CCOc1ccc(NC(=O)CN(C)C(=O)c2csc3c2CCCC3)cc1OCC | -19.4% |
| Cn1ccnc1C(=O)c1cc(SCC(=O)NCc2ccccc2)nc2ccccc12 | -12.1% |
| O=C(NNC(=O)C1CCN(c2ncccn2)CC1)c1ccncc1 | 21% |

| Compound | hERG current change (%, negative = inhibition) at 10uM |
| --- | --- |
| CC(=O)Nc1cccc(NC(=O)c2cc([N+](=O)[O-])ccc2N2CCCCC2)c1 | -69.3% |
| O=C(c1cnccn1)N(Cc1cccs1)C1(C(=O)NC2CCCCC2)CCCCC1 | -16.5% |
| C/C(=N\NC(=O)c1cccc(N/N=C(\C)c2ccccc2)c1)c1ccccc1 | -15.5% |
| COC(=O)c1ccc2[nH]c([C@H](C)O)c([C@H](C)O)c2c1 | 5.2% |
| CCS(=O)(=O)c1ccc(O)c(NC(=O)NC2CCCCC2)c1 | 16.3% |
| CC(CN1CCOCC1)C(=O)O.Cl (centres unmarked) | -15.6% |
| CCOC(=O)CN1C(=O)/C(=C/c2ccc(Cl)cc2)Oc2ccccc21 | 2.31% |
| CCN(CC)S(=O)(=O)c1cccc(C(=O)Oc2cccc(NC(=O)c3cccs3)c2)c1 | -8.91% |
| COc1cc(NC(=O)c2cc3sccc3n2C)cc(OC)c1 | -19.5% |
| COc1ccc2cc(C(=O)N3CCN(c4ccc(F)cc4)CC3)[nH]c2c1 | 13.7% |
| Cc1ccccc1CCN(C(=O)Cn1nnc2ccccc21)C(C(=O)NC(C)(C)C)c1ccsc1 (centres unmarked) | -2.38% |
| CC(C)Cc1nnc(NC(=O)CCC(=O)Nc2ccc3cn[nH]c3c2)s1 | 10.9% |
| Cc1ccc(N2CCN(C(=O)c3cccs3)CC2)cc1C | 2.97% |
| CCOc1cc(N2CCOCC2)c(OCC)cc1NC(=O)COC(=O)c1cccc2ccccc12 | 33.6% |
| Cc1ccc(CN2CCN(CC(=O)O)C2=O)cc1 | 41.5% |
| COCCn1c(SCC(=O)N2CCc3ccccc3C2)nc2ccccc2c1=O | -43.8% |
| Cc1cnc(NC(=O)CN(C)S(=O)(=O)c2ccc(Cl)cc2)s1 | -1.68% |
| COc1ccc2nc(NC(=O)CNS(=O)(=O)c3cccs3)sc2c1 | -1.25% |
| CC1(NC(=O)CCc2nc3sc4c(c3c(=O)[nH]2)CCCC4)CCS(=O)(=O)C1 (centres unmarked) | -2.89% |
| O=C(O)C(=O)/C(=C\c1ccccc1)c1ccc2ccccc2n1 | 13.9% |

— publication PMC4336329 (PLoS ONE, 2015)
